In PubChem BioAssay (Tox21):
“And” between values parts separate entries of the source, which are not always exact repeats. Identical values can stand only once. Inconclusive results, whose numbers are uncertain, are shown with a selection of clear calls. Potencies beside an inconclusive call are fits to weak or partial responses and may not hold up. A structure can be active in one record and inactive in another. The source made the active and inactive calls. The call rests on the fitted dose curve; in most records, active means well fitted inhibition curve with a large enough effect in the repeat runs; inconclusive means weak or mixed curves; inactive means no such curve, though single readings can be large or run the other way.

biological target: Cytochrome P450 3A4 (Homo sapiens) (UniProt P08684); assay: Cytochrome P450 Family 3 Subfamily A Member 4 (CYP3A4) small molecule antagonists: luciferase reporter qHTS assay (AID 1671201); settings: P450-Glo CYP3A4 enzyme, luciferin luminescence, 1 h; series mostly up to 115 µM; further: nearly all actives have a fitted effect of over 50% in size
Outline: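 Room-temperature assay throughout: 10 min compound–enzyme/substrate preincubation, 1 h reaction after NADPH regeneration solution, 20 min detection. Luciferin formed from proluciferin substrate is quantified by luminescence.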
Potency means the concentration at half of the fitted maximal effect; tags describe the fitted curve by direction and shape.

Sequence of UniProt P08684 (P08684 whole entry, looked up): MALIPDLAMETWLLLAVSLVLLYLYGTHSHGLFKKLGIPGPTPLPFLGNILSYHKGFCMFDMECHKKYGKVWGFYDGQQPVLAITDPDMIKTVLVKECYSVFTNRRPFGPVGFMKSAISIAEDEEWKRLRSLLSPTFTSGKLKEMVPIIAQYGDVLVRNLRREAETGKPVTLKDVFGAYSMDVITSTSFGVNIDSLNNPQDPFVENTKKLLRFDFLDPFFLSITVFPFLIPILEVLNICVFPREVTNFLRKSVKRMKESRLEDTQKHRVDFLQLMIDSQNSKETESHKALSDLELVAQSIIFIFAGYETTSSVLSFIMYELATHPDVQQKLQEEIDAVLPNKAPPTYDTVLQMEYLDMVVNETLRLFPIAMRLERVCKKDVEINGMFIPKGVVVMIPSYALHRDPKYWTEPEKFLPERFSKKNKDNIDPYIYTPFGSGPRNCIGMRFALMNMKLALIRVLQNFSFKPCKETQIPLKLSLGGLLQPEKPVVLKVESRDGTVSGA

| SMILES | Potency |
| --- | --- |
| COP(=S)(OC)Oc1ccc(Sc2ccc(OP(=S)(OC)OC)cc2)cc1 | inconclusive: 28.3 µM [inhibitor, full curve] |
| CCOCn1c(-c2ccc(Cl)cc2)c(C#N)c(Br)c1C(F)(F)F | inconclusive: 35.6 µM [inhibitor, partial curve] |
| CNC(=O)Oc1cc(C)c(SC)c(C)c1 | inconclusive: 79.6 µM [inhibitor, single point] |
| COCCl | inconclusive: 26.2 µM [inhibitor, partial curve] |
| CC(C)CCCCCCOC(=O)c1ccccc1C(=O)OCCCCCCC(C)C | inconclusive: 5.63 µM [inhibitor, full curve] and inconclusive: 11.3 µM [inhibitor, full curve] and inconclusive: 7.1 µM [inhibitor, full curve] |
| Nc1ccc(N=Nc2ccc(-c3ccc(N=Nc4c(S(=O)(=O)O)cc5cc(S(=O)(=O)O)c(N=Nc6ccccc6)c(O)c5c4N)cc3)cc2)c(N)c1 | inconclusive: 20.4 µM [inhibitor, single point] |
| O=C(O)CCCc1ccc(N(CCCl)CCCl)cc1 | inactive |
| Clc1cc(C(Cl)(Cl)Cl)cnc1Cl | active: 8.94 µM |
| CC(C)(OOC(C)(C)c1ccccc1)c1ccccc1 | inconclusive: 88.1 µM [inhibitor, partial curve, poor fit] |
| c1ccc2c(c1)CCNC2 | inconclusive: 41 µM [inhibitor, partial curve] |
| C[CH2][Hg][N]1C(=O)C2C(C1=O)C1(Cl)C(Cl)=C(Cl)C2(Cl)C1(Cl)Cl (stereo unspecified) | active: 13.5 µM |
| Nc1cc(Cl)ccc1Cl | inconclusive: 56 µM [inhibitor] |
| CCOP(=O)(OCC)SCCSCC | inconclusive: 30.3 µM [inhibitor] |
| Cn1sc(Cl)cc1=O | inactive |
| CCc1ccccc1N | inconclusive: 79.6 µM [inhibitor, partial curve, poor fit] |
| O=NN1CCCC1 | inconclusive: 18.7 µM [inhibitor, full curve] |
| C[C@]12CCC(=O)C=C1CC[C@@H]1[C@@H]2CC[C@@]2(C)[C@H]1CC[C@]2(C)O | inactive |
| CCCN(CCOc1c(Cl)cc(Cl)cc1Cl)C(=O)n1ccnc1 | active: 32.4 nM and active: 100 nM |
| CCCCN(CCCC)C(=S)S | inconclusive: 71 µM [inhibitor, partial curve] |
| CCCCCCn1cc[n+](C)c1 | inconclusive: 37.1 µM [inhibitor, partial curve] |
| NNC(=O)c1cccnc1 | active: 2.53 µM |
